Experimental data published in patent publication US20260216242A1, “ALPP-SPECIFIC VARIANT ANTIGEN BINDING MOLECULES” (ALMAC DISCOVERY LIMITED, priority 2022, published 2026).

T1: ALPI expressed on the surface of CHO cells (CHO-ALPI) (Homo sapiens, UniProt P09923)
T1 construct: expressed in transfected cells
T1 sequence (P09923 20-503 limits assumed): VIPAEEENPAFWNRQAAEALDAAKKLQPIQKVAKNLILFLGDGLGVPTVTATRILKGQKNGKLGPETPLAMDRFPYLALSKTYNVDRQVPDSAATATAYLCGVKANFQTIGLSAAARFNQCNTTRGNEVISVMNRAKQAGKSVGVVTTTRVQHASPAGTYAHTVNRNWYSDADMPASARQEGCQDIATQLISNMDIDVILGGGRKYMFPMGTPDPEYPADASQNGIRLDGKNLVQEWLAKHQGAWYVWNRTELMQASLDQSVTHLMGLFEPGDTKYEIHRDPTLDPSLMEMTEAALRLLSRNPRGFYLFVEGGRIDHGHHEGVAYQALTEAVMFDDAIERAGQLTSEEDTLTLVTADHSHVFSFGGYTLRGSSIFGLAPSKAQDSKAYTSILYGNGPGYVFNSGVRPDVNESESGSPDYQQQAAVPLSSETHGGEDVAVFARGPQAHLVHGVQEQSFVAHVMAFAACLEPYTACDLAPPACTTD

T2: ALPL expressed on the surface of CHO cells (CHO-ALPL) (Homo sapiens, UniProt P05186)
T2 construct: expressed in transfected cells
T2 sequence (P05186 18-501 limits assumed): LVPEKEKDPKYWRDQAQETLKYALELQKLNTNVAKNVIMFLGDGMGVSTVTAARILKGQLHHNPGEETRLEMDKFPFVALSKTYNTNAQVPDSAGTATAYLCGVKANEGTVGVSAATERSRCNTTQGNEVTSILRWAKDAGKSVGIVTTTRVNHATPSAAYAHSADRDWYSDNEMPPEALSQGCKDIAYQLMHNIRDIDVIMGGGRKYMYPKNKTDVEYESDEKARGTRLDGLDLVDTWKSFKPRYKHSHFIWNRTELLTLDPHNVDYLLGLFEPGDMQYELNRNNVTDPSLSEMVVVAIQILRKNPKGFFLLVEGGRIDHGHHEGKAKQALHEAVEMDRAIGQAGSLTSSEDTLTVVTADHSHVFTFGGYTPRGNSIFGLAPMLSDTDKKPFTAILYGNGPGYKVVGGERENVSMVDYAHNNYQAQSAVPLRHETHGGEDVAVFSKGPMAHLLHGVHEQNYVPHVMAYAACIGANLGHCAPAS

T3: hALPI (Homo sapiens, UniProt P09923)
T3 sequence (P09923 with tags, fused parts or gaps): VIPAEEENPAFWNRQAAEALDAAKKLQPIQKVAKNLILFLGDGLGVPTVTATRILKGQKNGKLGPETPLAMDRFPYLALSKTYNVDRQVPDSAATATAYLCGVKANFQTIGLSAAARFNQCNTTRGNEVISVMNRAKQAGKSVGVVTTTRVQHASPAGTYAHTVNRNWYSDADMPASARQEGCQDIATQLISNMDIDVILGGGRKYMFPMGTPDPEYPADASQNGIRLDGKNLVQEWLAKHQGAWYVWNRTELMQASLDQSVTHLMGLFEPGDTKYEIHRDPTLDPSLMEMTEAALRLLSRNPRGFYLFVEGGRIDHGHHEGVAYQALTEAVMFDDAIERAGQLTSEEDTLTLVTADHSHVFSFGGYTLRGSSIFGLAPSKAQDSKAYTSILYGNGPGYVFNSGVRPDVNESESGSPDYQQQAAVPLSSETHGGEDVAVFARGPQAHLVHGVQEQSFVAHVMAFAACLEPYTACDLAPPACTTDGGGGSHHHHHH

B1: D10 (G4S)1 hFc (S239C): D10 VHH fused via [G4S]1 linker to human IgG1 Fc with S239C (SEQ ID NO: 103) (protein)
chain: QVQLVESGGGLVQPGGSLRLSCAASGSIFSVNTMGWYRQAPGKQRDLVAVATSGGTIHYADSVKGRFTISRDNAKNTVYLQMNSLKPEDTAVYYCNLVVPYGMIAGDHDYWGQGTKVTVSSGGGGS[human IgG1 Fc with changes not spelt out]
B2: F08-hFc (S239C): F08 VHH fused via [G4S]3 linker to human IgG1 Fc with S239C (protein)
chain: QVQLVESGGGSVQAGGSLRLSCAASGPSLSNYAMGWFRQAPGKEREFVAGISWGGGRTSYTDSVKGRFTISRDNAKNTVYLQMNNLKPEDTGVYYCAGRYGRGRNVEYEYDYWGQGTQVTVSSGGGGSGGGGSGGGGS[human IgG1 Fc with changes not spelt out]
B3: D04-hFc (S239C): D04 VHH fused via [G4S]3 linker to human IgG1 Fc with S239C (protein)
chain: QVQLVESGGGLVQPGGSLRLSCAASESTFSINVMGWYRQAPGKQRELVATITSGDITNYADSVKGRFTISRDNAENTVYLRTNSLKPEDTAVYYCNARGEYHSGNEYDYWGQGTQVTVSSGGGGSGGGGSGGGGS[human IgG1 Fc with changes not spelt out]

How the values were obtained:
[1] = biological target: T1, ALPI expressed on the surface of CHO cells (CHO-ALPI); assay: Cell-surface binding by flow cytometry, CHO-ALPI; conditions: VHH-hFc proteins, flow cytometry, up to 350 nM
Experimental: (§1) C-terminal His tagged VHH proteins were assessed for ALPP, ALPPL2, ALPI and ALPL cell-surface binding by flow cytometry. Binders encompassing different epitope bins were screened on CHO cells stably expressing ALPP, ALPPL2, ALPI or ALPL. High levels of cell-surface proteins expression were confirmed for each of the cell-lines by flow cytometry.
(§2) Cell surface binding of test agents to hALPP isoforms was characterized in four CHO-ALPP isoform stably transfected cell lines (CHO-ALPP, CHO-ALPPL2, CHO-ALPI and CHO-ALPL) and the resulting KDapp values determined. Adherent cells were detached from tissue culture flasks by incubating with 0.1% EDTA/PBS solution at 37° C. for ~10 minutes or until cells detached easily. Cells were re-suspended in ice-cold PBS/2% FCS in 15 ml tubes and centrifuged at 1700 rpm for 5 mins at 4° C. Supernatant was removed and the cell pellet re-suspended in PBS/2% FCS. A cell count was performed using a Chemometec Nucleocounter NC-202 and 2.5×10^5 cells were aliquoted per test sample into a 96 well plate. Cells were incubated with 100 μl of test agents at a range of concentrations, plus controls for 1 hr on ice. The sample plate was centrifuged at 1700 rpm for 5 mins at 4° C. The supernatant was removed, and a wash performed by re-suspending the cell pellets in 0.25 mL of ice-cold PBS/2% FCS using a multichannel pipette. Samples were again centrifuged at 1700 rpm for 5 min at 4° C. Supernatant was removed and two further washes performed as described. After the final wash and centrifugation step, excess liquid was removed by blotting the plate on tissue paper. Binding of VHH (His6 tagged) agents was determined by adding 100 μl of anti-x6His tag Ab (Abcam) per cell pellet sample as appropriate and incubating on ice for 30 mins. Wash steps were performed as described previously. Fitc-anti-mouse antibody (ThermoFisher) was used to detect binding of the VHH (His6 tagged) agents by incubating with the appropriate samples for 30 min on ice in the dark. Wash steps were performed as described previously. All cell pellets were finally re-suspended in […] of ice-cold PBS/2% FCS and left on ice in the dark prior to analysis on a Merck-Millipore Guava EasyCyte HT or Thermo Fisher Attune N×T flow cytometer.
(§3) VHH-hFc proteins were assessed for human ALPP, ALPPL2, ALPI and ALPL cell-surface binding by flow cytometry. Binders were screened on CHO cells stably expressing human ALPP, ALPPL2, ALPI or ALPL.
(§4) Cell surface binding of test agents to hALPP isoforms was characterized in four CHO-ALPP isoform transfectant cell lines (CHO-ALPP, CHO-ALPPL2, CHO-ALPI and CHO-ALPL) and the resulting KDapp values determined. Adherent cells were detached from tissue culture flasks by incubating with 0.1% EDTA/PBS solution at 37° C. for ~10 minutes or until cells detached easily. Cells were re-suspended in ice-cold PBS/2% FCS in 15 ml tubes and centrifuged at 1700 rpm for 5 mins at 4° C. Supernatant was removed and the cell pellet re-suspended in PBS/2% FCS. A cell count was performed using a Chemometec Nucleocounter NC-202 and 2.5×10^5 cells were aliquoted per test sample into a 96 well plate. Cells were incubated with 100 μl of test agents at a range of concentrations, plus controls for 1 hr on ice. The sample plate was centrifuged at 1700 rpm for 5 mins at 4° C. The supernatant was removed, and a wash performed by re-suspending the cell pellets in 0.25 mL of ice-cold PBS/2% FCS using a multichannel pipette. Samples were again centrifuged at 1700 rpm for 5 min at 4° C. Supernatant was removed and two further washes performed as described. After the final wash and centrifugation step, excess liquid was removed by blotting the plate on tissue paper. Binding of VHH-hFc agents was determined by adding 100 μl of Fitc-anti-human Ab (ThermoFisher) and incubating for 30 mins on ice in the dark. Wash steps were performed as described previously. […]

[2] = biological target: T2, ALPL expressed on the surface of CHO cells (CHO-ALPL); assay: Cell-surface binding by flow cytometry, CHO-ALPL; conditions: VHH-hFc proteins
Experimental: as §1, §2, §3, §4

ALPP = ALPP (Homo sapiens, UniProt P05187); assay: BLI binding kinetics, human ALPP immobilised on AR2G sensors (KD / KD apparent); conditions: VHH-hFc, KD apparent format
Chain of UniProt P05187 (P05187 with tags, fused parts or gaps): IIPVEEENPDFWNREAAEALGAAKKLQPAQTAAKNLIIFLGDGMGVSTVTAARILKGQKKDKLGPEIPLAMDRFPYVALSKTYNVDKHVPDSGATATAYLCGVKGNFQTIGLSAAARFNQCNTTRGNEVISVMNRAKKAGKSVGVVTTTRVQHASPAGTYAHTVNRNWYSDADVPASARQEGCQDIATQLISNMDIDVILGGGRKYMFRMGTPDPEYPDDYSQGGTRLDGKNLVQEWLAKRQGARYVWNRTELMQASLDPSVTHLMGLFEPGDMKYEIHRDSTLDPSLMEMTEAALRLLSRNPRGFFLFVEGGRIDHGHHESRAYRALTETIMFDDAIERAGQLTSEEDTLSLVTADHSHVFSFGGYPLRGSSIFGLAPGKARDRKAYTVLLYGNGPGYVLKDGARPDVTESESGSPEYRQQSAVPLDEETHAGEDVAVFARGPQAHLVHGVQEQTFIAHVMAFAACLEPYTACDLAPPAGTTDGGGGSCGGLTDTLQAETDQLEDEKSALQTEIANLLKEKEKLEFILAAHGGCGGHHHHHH
Experimental: (§5) Binding kinetics were determined using the Biolayer Interferometry (BLI) Octet K2 system (Sartorius). Human ALPP, ALPPL2, ALPL (each fused with a cysteine stabilised leucine zipper) and ALPI, (SEQ ID NO: 265, SEQ ID NO: 266 and SEQ ID NO: 267 and SEQ ID NO: 264 respectively) were immobilised in sodium acetate pH5 buffer to AR2G sensors using amine coupling. All assays were conducted in PBS with a plate temperature of 25° C. Ka (M^−1s^−1), Kd (s^−1) and KD (nM) values were determined using Octet Data Analysis High Throughput software (ForteBio) for Biolayer Interferometry.
(§6) Binding kinetics were determined using the Biolayer Interferometry (BLI) Octet K2 or R4 system (Sartorius). Human ALPP, ALPPL2 and ALPL all fused with a disulphide stabilised leucine zipper (SEQ ID NO: 265, SEQ ID NO: 266, and SEQ ID NO: 267) and ALPI His (SEQ ID NO: 264) were used in BLI experiments. For KD apparent measurements, the ALPP proteins were immobilised in sodium acetate pH5 buffer to AR2G sensors using amine coupling. To measure 1:1 interactions, AHC biosensors were used to immobilise Fc-fused proteins. All assays were conducted in HBS-EP with a plate temperature of 25° C. Ka (M^−1s^−1), Kd (s^−1) and KD (nM) values were determined using Octet Data Analysis High Throughput software (Sartorius) for Biolayer Interferometry.
as §6, with “NO:264)” for “NO: 264)”

hALPI = biological target: T3, hALPI; assay: BLI binding to ALPI His; conditions: VHH-hFc
Experimental: as §5, §6
as §6, with “NO:264)” for “NO: 264)”

mouse ALPPL2 = biological target: T4, mouse ALPPL2 (Mus musculus, UniProt P24823); assay: BLI cross-species reactivity, mouse ALPPL2; assay type: binding; conditions: VHH-hFc, KD apparent
T4 construct: made in house
T4 sequence (P24823 with tags, fused parts or gaps): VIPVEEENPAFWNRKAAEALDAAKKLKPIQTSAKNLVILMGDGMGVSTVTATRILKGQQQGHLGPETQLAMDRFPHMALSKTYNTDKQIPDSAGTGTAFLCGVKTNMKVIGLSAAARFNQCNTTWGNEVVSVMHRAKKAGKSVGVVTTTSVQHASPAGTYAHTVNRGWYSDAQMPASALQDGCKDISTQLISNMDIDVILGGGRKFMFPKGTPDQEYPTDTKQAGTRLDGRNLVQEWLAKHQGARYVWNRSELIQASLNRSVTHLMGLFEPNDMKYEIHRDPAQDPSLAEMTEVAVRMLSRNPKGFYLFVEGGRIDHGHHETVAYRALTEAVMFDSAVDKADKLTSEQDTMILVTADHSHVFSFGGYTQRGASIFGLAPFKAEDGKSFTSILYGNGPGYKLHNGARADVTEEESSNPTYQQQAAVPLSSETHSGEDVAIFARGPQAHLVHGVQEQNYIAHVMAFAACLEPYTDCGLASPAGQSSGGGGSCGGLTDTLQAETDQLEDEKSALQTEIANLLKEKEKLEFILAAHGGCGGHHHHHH
Experimental: as §6
(§7) To assess cross-species reactivity of the ALPP/ALPPL2 targeting VHH-hFc fusions, BLI was conducted using mouse ALPPL2 (NCBI #NP_031459), rhesus monkey ALPP (NCBI #XP_028687061) and cynomolgus monkey ALPP (NCBI #XP_045223825). Each of these were expressed as cysteine-stabilised leucine zipper fusions (SEQ ID NO: 271, SEQ ID NO: 272 and SEQ ID NO: 273). BLI was conducted as described above.

rhesus monkey ALPP = assay: BLI cross-species reactivity, rhesus monkey ALPP; assay type: binding; conditions: VHH-hFc, KD apparent format
Experimental: as §6, §7

hALPL = hALPL (Homo sapiens, UniProt P05186); assay: BLI binding to human ALPL; conditions: VHH-hFc
Chain of hALPL (P05186 with tags, fused parts or gaps): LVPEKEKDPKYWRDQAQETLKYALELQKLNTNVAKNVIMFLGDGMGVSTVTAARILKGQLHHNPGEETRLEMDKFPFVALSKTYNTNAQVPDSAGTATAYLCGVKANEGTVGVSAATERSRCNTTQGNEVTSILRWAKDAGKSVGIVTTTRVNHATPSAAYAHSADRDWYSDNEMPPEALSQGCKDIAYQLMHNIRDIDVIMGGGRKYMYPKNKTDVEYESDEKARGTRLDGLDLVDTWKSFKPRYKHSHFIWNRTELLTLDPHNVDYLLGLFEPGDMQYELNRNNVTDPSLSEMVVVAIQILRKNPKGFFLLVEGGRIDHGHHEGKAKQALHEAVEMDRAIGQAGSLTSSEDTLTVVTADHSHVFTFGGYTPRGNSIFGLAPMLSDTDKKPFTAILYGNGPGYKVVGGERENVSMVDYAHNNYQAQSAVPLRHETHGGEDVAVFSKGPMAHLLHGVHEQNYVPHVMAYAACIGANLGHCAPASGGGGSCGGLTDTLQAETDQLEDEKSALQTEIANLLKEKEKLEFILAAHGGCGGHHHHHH
Experimental: as §5, §6
as §6, with “NO:264)” for “NO: 264)”

Human ALPPL2 = Human ALPPL2 (Homo sapiens, UniProt P10696); assay: BLI binding kinetics, human ALPPL2 immobilised on AR2G sensors (KD / KD apparent); conditions: VHH-hFc, KD apparent format
Chain of Human ALPPL2 (P10696 with tags, fused parts or gaps): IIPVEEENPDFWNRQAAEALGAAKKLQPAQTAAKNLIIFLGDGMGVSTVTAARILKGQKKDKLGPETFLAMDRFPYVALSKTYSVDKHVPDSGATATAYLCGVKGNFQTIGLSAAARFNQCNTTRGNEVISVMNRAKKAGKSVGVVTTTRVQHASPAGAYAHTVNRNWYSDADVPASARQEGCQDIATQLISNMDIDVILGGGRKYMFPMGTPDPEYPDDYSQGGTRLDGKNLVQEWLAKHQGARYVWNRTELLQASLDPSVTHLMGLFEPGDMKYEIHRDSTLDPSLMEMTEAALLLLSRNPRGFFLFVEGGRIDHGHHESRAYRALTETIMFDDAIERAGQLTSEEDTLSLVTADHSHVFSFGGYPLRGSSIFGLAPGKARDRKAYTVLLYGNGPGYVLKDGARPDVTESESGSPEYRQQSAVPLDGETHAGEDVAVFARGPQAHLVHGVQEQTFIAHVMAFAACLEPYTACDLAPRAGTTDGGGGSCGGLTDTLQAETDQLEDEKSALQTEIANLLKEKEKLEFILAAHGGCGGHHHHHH
Experimental: as §5, §6
as §6, with “NO:264)” for “NO: 264)”

Molecule	KDapp CHO-ALPI [1]	KDapp CHO-ALPL [2]	hALPP Ka (ALPP) [M⁻¹ s⁻¹]	hALPP Kd (ALPP) [s⁻¹]	hALPI (hALPI)	mALPPL2 KD (mouse ALPPL2)	rmALPP Ka (rhesus monkey ALPP) [M⁻¹ s⁻¹]	rmALPP Kd (rhesus monkey ALPP) [s⁻¹]	hALPL (hALPL)	hALPPL2 Ka (Human ALPPL2) [M⁻¹ s⁻¹]	hALPPL2 Kd (Human ALPPL2) [s⁻¹]
B1	No binding	No binding	–	–	–	–	–	–	–	–	–
B2	–	–	192000	<1e-07	Low level binding	No Binding	297000	<1e-07	No binding	–	–
B3	–	–	311000	0.00000665	No binding	No Binding	672000	<1e-07	No binding	104000	0.000239
